Reference: PubChem BioAssay AID588453 (National Center for Advancing Translational Sciences (NCATS), 2011)
Where “and” joins values, the source holds several entries; their conditions need not be identical. Equal values may be shown once. Among all 390,000 compounds or so, about 4,000 (1%) were called active. This list was built around the results that the source calls inconclusive (neither active nor inactive); the mix of calls is not that of the screen. Calls follow the shape of the dose curve; as a rule, active = well fitted inhibition curve with a large enough effect; inconclusive = small, poorly fitted or top-dose-only effect; inactive = no such curve, though single readings can be large or run the other way. A potency beside an inconclusive call is a rough fit, not a confirmed value. More than one record can exist for a structure, and the calls need not agree.

molecular target: Thioredoxin reductase 1, cytoplasmic (Rattus norvegicus) (UniProt O89049); assay: qHTS Assay for Inhibitors of Mammalian Selenoprotein Thioredoxin Reductase 1 (TrxR1): qHTS; conditions: recombinant rTrxR1, NADPH fluorescence consumption, selenite substrate; series mostly up to 114 µM; also: nearly all actives have a fitted effect of over 65% in size
How it was run: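 Rat TrxR1 (90 nM in the dispensed reagent) was pre-reduced with 400 uM NADPH for 5 min at room temperature, then incubated with compound for 15 min. After 400 uM selenite was added, NADPH fluorescence (Ex 340/Em 450 nm) was followed for 8 min.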
% is scaled to controls: 0 for no effect and ±100 for the full control effect; potency is read from the fitted curve at half-maximal effect; tags tell the direction and shape of the fitted curve.

UniProt O89049, sequence (O89049 whole entry, looked up): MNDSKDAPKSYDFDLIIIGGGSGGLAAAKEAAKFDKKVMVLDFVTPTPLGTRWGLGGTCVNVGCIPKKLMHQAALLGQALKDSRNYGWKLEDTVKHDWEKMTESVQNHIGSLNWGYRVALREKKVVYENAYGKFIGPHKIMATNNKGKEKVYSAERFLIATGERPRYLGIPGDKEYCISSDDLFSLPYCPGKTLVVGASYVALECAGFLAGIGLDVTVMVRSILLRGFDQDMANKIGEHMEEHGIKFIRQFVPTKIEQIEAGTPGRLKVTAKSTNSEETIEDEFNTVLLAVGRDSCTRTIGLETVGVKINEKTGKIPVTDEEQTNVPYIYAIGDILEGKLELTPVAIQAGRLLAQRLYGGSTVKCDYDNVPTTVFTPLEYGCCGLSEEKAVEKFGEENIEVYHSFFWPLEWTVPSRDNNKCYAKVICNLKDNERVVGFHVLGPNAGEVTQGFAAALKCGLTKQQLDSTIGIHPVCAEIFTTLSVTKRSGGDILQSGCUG

Compound | Potency | activity change, negative = inhibition
O=C(NC1CCCCC1)Oc1cc2oc(=O)sc2cc1Cl | inconclusive: 14.1 µM [inhibitor, partial curve] | 
COC(=O)C(C#N)C(c1cccnc1)c1c(C)[nH][nH]c1=O (configuration not stated) | inconclusive: 4.47 µM [inhibitor, full curve] | 
Cn1c(O)c(C(c2ccccn2)c2c(O)n(C)c(=S)[nH]c2=O)c(=O)[nH]c1=S | inconclusive: 35.5 µM [inhibitor, partial curve, poor fit] | 
CCn1ccnc1CN1CCCC(C(=O)c2ccc(OC)cc2OC)C1 (configuration not stated) | inactive | 
Cc1nn(Cc2ccccc2)c(C)c1C(=O)OCC(=O)NCc1ccco1 | inactive | 
CCOC(=O)c1ccccc1C(=O)OCC | inactive | 
NC(N)=NOCC[C@H](N)C(=O)O | inactive | 
CN1C(=O)C(=Cc2ccccc2OCc2ccccc2Cl)C(=O)N(C)C1=O | inconclusive: 28.2 µM [inhibitor, single point] | 
O=C(O)Cn1cc(C=C2C(=O)NC(=O)NC2=O)c2ccccc21 | inconclusive: 44.7 µM [inhibitor, partial curve] | 
O=C1NC(=O)N(c2ccc(F)cc2)C(=O)/C1=C/c1ccsc1 | inconclusive: 25.1 µM [inhibitor, single point] | 
CCOC(=O)Cn1cc([N+](=O)[O-])nc1[N+](=O)[O-] | inconclusive: 44.7 µM [inhibitor, partial curve] | 
Cc1cc(NC(=O)CCl)no1 | inconclusive: 70.8 µM [inhibitor, single point] | 
CCc1ccccc1N1C(=O)/C(=C/c2ccc(N3CCN(C)CC3)o2)C(=O)NC1=S | inconclusive: 70.8 µM [inhibitor, single point] | 
OC(CCNCCc1c[nH]c2ccccc12)C(F)(F)F (configuration not stated) | inactive | 
CCCOC(=O)c1c(N)n(Cc2cccs2)c2nc3ccccc3nc12 | inactive | 
CCOc1ccc(/C=C2/C(=O)NC(=O)N(CCc3ccc(F)cc3)C2=O)cc1 | active: 28.2 µM | 
Cc1cc(C)n(-c2ccc(NN=C(C#N)C#N)cc2)n1 | inconclusive: 14.1 µM [inhibitor, full curve] | 
c1cc2c(cc1CN1CCNCC1)OCO2 | inconclusive: 79.4 µM [inhibitor, single point] | 
COC(=O)C(O)(c1ccc(NC(=S)NC(=O)c2ccc(Cl)cc2Cl)c(C)c1)C(F)(F)F (configuration not stated) | inactive | 
O=C1NC(=O)N(c2ccccc2)C(=O)/C1=C\c1ccccc1[N+](=O)[O-] | inconclusive: 22.4 µM [inhibitor, partial curve, poor fit] | 
C=CCN1CC[C@]23c4c5ccc(O)c4O[C@H]2/C(=N/NC(=O)c2ccccc2)CC[C@@]3(O)[C@H]1C5 | inconclusive: 37.7 µM [inhibitor, single point] and inconclusive: 17.8 µM [inhibitor, single point] | 

Compound | Potency | activity change, negative = inhibition
[Hg+][c]1ccccc1 | inconclusive: 0.794 µM [inhibitor, full curve, poor fit] | 
C/C=C(/C)C(=O)O[C@H]1C(C)=C2C([C@@H]1OC(=O)CCCCCCC)[C@@](C)(OC(C)=O)C[C@@H](OC(=O)CCC)[C@@]1(O)[C@H]2OC(=O)[C@@]1(C)O (some centres not stated) | inconclusive: 28.2 µM [inhibitor, full curve] | 
O=C1NC(=O)N(c2ccccc2)C(=O)/C1=C\C=C\c1ccccc1 | inactive | 
CN1CCN(c2nc3ccccn3c(=O)c2C=C2C(=O)N(C)C(=O)N(C)C2=O)CC1 | inconclusive: 100 µM [inhibitor, single point] | 
Cn1nc(-c2ccccc2)nc2c(=O)n(C)c(=O)nc1-2 | inconclusive: 31.6 µM [inhibitor, partial curve, poor fit] | 
O=C(O)CCn1cc(C=C2C(=O)NC(=O)NC2=O)c(-c2ccc(Br)cc2)n1 | inconclusive: 79.4 µM [inhibitor, partial curve] | 
CN(C)c1ccc(/C=C/c2cc[n+](C)c3ccccc23)cc1 | inconclusive: 79.4 µM [inhibitor, partial curve, poor fit] | 
CC(C)n1c(=O)c(C=Nc2cccc([N+](=O)[O-])c2)c(O)n(CCc2ccccc2)c1=O | inconclusive: 39.8 µM [inhibitor, partial curve] | 
CC(C)[C@H]1C(=O)O[C@H](C(C)C)C(=O)N(C)[C@@H](C(C)C)C(=O)O[C@H](C(C)C)C(=O)N(C)[C@@H](C(C)C)C(=O)O[C@H](C(C)C)C(=O)N1C | inconclusive: 89.1 µM [inhibitor, single point] | 
CCOC(=O)c1ccc(N=Cc2c(O)n(-c3ccccc3F)c(=S)[nH]c2=O)cc1 | inconclusive: 50.1 µM [inhibitor, partial curve] | 
COc1ccc(/C=C2/C(=O)NC(=S)N(C3CC3)C2=O)cc1CN1C(=O)c2ccccc2C1=O | inconclusive: 11.2 µM [inhibitor, full curve, poor fit] | 
O=C1NC(=O)C(=Cc2cccs2)C(=O)N1 |  | inactive: 9.15% [at 2.29 µM]
Cc1ccccc1-n1c(O)c(/C=C/C=Nc2ccccc2)c(=O)[nH]c1=O | inconclusive: 56.2 µM [inhibitor, single point] | 
CN1C2CCC1/C(=C/c1ccccn1)C(=O)/C2=C\c1ccccn1 | inconclusive: 28.2 µM [inhibitor, single point] | 
Cc1cc(=O)oc2cc(OCC(=O)N3CCN(Cc4ccc5c(c4)OCO5)CC3)ccc12 | inconclusive: 79.4 µM [inhibitor, single point] | 
O=P(O)(O)c1ccccc1OCCOCCOCCOCCOc1ccccc1P(=O)(O)O | inconclusive: 63.1 µM [inhibitor, partial curve, poor fit] | 
COC(=O)C1=Nc2ccccc2/C1=C\c1c(O)n(-c2ccc(OC)cc2)c(=O)[nH]c1=O | inconclusive: 10 µM [inhibitor, partial curve, poor fit] | 
CC1=C(O)C(=O)C=C2C1=CC=C1C2(C)CCC2(C)C3CC(C)(C(=O)O)CCC3(C)CCC12C (configuration not stated) | active: 20 µM | 
C[C@]12CC[C@H]3[C@@H](CCC4=CC(=O)CC[C@@H]43)[C@@H]1CC[C@@H]2O | inconclusive: 89.1 µM [inhibitor, partial curve, poor fit] | 
Cc1cc(S(=O)(=O)NCC(C)C)ccc1OCC(=O)N1CCN(Cc2ccccc2)CC1 | inactive | 
O=C1NC(=O)N(CCC2=CCCCC2)C(=O)/C1=C/c1ccc(O)cc1 | inconclusive: 28.2 µM [inhibitor, partial curve, poor fit] | 

Compound | Potency | activity change, negative = inhibition
C=CCN1C(=O)NC(=O)/C(=C/c2ccoc2)C1=O | inconclusive: 50.1 µM [inhibitor, single point] | 
O=[N+]([O-])c1ccc2nc(N3CCNCC3)ccc2c1 | active: 79.4 µM | 
CCOC(=O)C(O)(c1ccc(NC(=S)NC(=O)c2ccc(Cl)cc2Cl)cc1)C(F)(F)F (configuration not stated) | inconclusive: 79.4 µM [inhibitor, partial curve, poor fit] | 
COc1ccc(CN2C(=O)NC(=O)/C(=C\c3cccc(OC)c3OC)C2=O)cc1 | inconclusive: 31.6 µM [inhibitor, single point] | 
CNCCc1c[nH]c2ccccc12 | active: 56.2 µM | 
O=c1[nH]c(CN2CCNCC2)nc2ccccc12 | inconclusive: 50.1 µM [inhibitor, partial curve, poor fit] | 
CC12CCC3c4ccc(OC(=O)N(CCCl)CCCl)cc4CCC3C1CCC2O (configuration not stated) |  | inactive: -2.01% [at 11.4 µM]
CN(C)C(Cc1ccccc1)C(=O)c1ccc(-c2ccccc2)cc1 (configuration not stated) | inconclusive: 10 µM [inhibitor, full curve] | 
C[C@H]1CCCC(=O)CCC/C=C/c2cc(O)cc(O)c2C(=O)O1 | inactive | 
C/C(CC(c1ccccc1)c1c(O)c2ccccc2oc1=O)=N\Nc1ccc([N+](=O)[O-])cc1[N+](=O)[O-] (configuration not stated) | inconclusive: 44.7 µM [inhibitor, partial curve, poor fit] | 
O=C(CSc1ccc(-c2ccco2)nn1)Nc1ccccc1 | active: 20 µM | 
c1ccc2c(N3CCNCC3)cccc2c1 | inconclusive: 28.2 µM [inhibitor, single point] and inconclusive: 3.77 µM [inhibitor, full curve, poor fit] and inconclusive: 25.1 µM [inhibitor, partial curve, poor fit] | 
CCN1CCN(c2ccc([N+](=O)[O-])cc2C=C2C(=O)NC(=O)NC2=O)CC1 | inconclusive: 15.8 µM [inhibitor, single point] | 
Cc1ccc(CCNC(=O)C2CCCN(Cc3nc(-c4cccc(Cl)c4)oc3C)C2)cc1 (configuration not stated) | inconclusive: 89.1 µM [inhibitor, single point] | 
CCOC(=O)c1c(C)n(Cc2ccccc2)c2ccc(OCC(O)CN3C(=O)CNC3=O)cc12 (configuration not stated) | inconclusive: 3.98 µM [inhibitor, single point] | 
COc1ccc(CN2CCNCC2)c(OC)c1OC | inactive and inconclusive: 44.7 µM [inhibitor, partial curve] | 
O=C1NC(c2cccnc2)Nc2sc3c(c21)CCCC3 (configuration not stated) | inconclusive: 28.2 µM [inhibitor, full curve] | 
COc1ccc(-n2c(O)c(C=NCc3ccc4c(c3)OCO4)c(=O)[nH]c2=O)cc1 | inconclusive: 89.1 µM [inhibitor, single point] | 
CCOP(=O)(OCC)C(O)c1ccccc1 (configuration not stated) | inactive | 
c1ccc2sc(C3CCCNC3)nc2c1 (configuration not stated) | inconclusive: 2.51 µM [inhibitor, single point] | 
